# Assay results: PubChem BioAssay AID588855 (National Center for Advancing Translational Sciences (NCATS), 2011)
# The campaign covered roughly 410,000 compounds. About 5,000 (1.2%) were called active. Inconclusive results, whose numbers are uncertain, are shown with a selection of clear calls. Calls come from the whole dose curve; as a rule, active = well fitted inhibition curve with a large enough effect; inconclusive = small, poorly fitted or top-dose-only effect; inactive = no such curve, though single readings can be large or run the other way. Potencies beside an inconclusive call are fits to weak or partial responses and may not hold up.
# Assay: qHTS for Inhibitors of TGF-b; note: nearly all actives have a fitted effect of over 65% in size
# Conditions: HepG2 CAGA-GFP TGF-b/SMAD3 reporter, GFP fluorescence, 18 h, TGF-beta stimulated, 500 pg/mL final; series mostly up to 46.1 µM; activity, negative = inhibition: at the top concentration
# Outline: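 First, reporter cells (HEPG2 CAGA-GFP) rested 2 h at 37 degrees C. Next, compounds were pinned in and TGF-beta added to 500 pg/mL final. After 18 h, GFP was imaged per cell and summed per well.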
# % is set by controls: 0 for no effect and ±100 for the full control effect; potency is the fitted concentration of half-maximal effect; tags give direction and shape of the fitted curve.
SMILES,"activity, negative = inhibition",Potency
CCNC(=O)CSc1nc2cc(S(=O)(=O)Nc3ccc(OC)cc3)ccc2o1,inactive: 0%,
COc1ccccc1Nc1nc(NCC2CCCO2)c2ccccc2n1 (stereo not drawn),,"inconclusive: 25.1 µM [inhibitor, single point]"
CCCn1c2ccccc2c2cnn(CC(=O)NCC3CCN(Cc4ccc(C)cc4)CC3)c(=O)c21,,"inconclusive: 0.355 µM [inhibitor, full curve, poor fit]"
COc1cc(CNc2ncnc3c2ncn3[C@H]2CN(Cc3ccc(-c4ccccc4)cc3)C[C@@H](CO)O2)cc(OC)c1OC,,"inconclusive: 35.5 µM [inhibitor, single point]"
CCCCCCCCCC[n+]1cc(Br)cc(Br)c1,,"inconclusive: 11.2 µM [inhibitor, single point]"
Nc1cc(=O)n(Cc2ccccc2)c(=O)n1-c1ccc(F)cc1,inactive: 7.86%,
Cc1ccc(C)c(OCc2cc(C(=O)NC3CCN(Cc4ccccc4)CC3)no2)c1,,"inconclusive: 22.4 µM [inhibitor, single point]"
CCOC(CNc1ncnc2sc(-c3ccccc3)cc12)OCC,inactive: -10.5%,
O=c1c2ccccc2nc(/C=C/c2cccc(Br)c2)n1CCCO,inactive: 0%,
CC(=O)Nc1ccc(S(=O)(=O)Nc2ccc(C)c([N+](=O)[O-])c2)cc1,,"inconclusive: 2.82 µM [inhibitor, single point]"
CCCCOc1cccc(C(=O)Nc2sc3c(c2C(=O)OCC)CCCC3)c1,inactive: -16.8%,
CCC(c1nnnn1CCOC)N1CCN(c2nc3ccccc3s2)CC1 (stereo not drawn),,"inconclusive: 22.4 µM [inhibitor, partial curve, poor fit]"
Cc1ccc(-c2nnn(CC(=O)Nc3ccc(S(=O)(=O)N4CCC(C)CC4)cc3)n2)cc1,,"inconclusive: 14.1 µM [inhibitor, partial curve, poor fit]"
COC(=O)[C@@H](Cc1c[nH]c2ccccc12)NC(=O)c1ccc2c(c1)OCO2,inactive: -21.5%,
CCC(C)NCC(O)(c1ccc(Cl)cc1)c1ccc(Cl)cc1 (stereo not drawn),,"inconclusive: 35.5 µM [inhibitor, single point]"
COc1ccc(NC(=S)N(CCCN2CCOCC2)Cc2cn(C)c3ccccc23)cc1OC,inactive: 0.836%,
Cc1nc(SCC(=O)N2CCC(Cc3ccccc3)CC2)[nH]c(=O)c1C,,"inconclusive: 31.6 µM [inhibitor, single point]"
O=C(O)c1ccc(-c2ccc(OS(=O)(=O)c3ccccc3F)cc2)cc1,inactive: 8.49%,
COc1ccc(-c2ccc(C3C(C#N)=C(N)Oc4n[nH]c(C)c43)o2)cc1 (stereo not drawn),,"inconclusive: 35.5 µM [inhibitor, single point]"
CCCCN(C=O)c1c(CC)nc2c(OCCOc3ccccc3)cccn12,,"inconclusive: 14.1 µM [inhibitor, partial curve, poor fit]"
C[n+]1cnn2c1SCC1(COC1)C2,,"inconclusive: 5.62 µM [inhibitor, single point]"
O=C(NC1c2ccccc2-c2ccccc21)N1CCCCC1,,"inconclusive: 35.5 µM [inhibitor, single point]"

SMILES,"activity, negative = inhibition",Potency
O=C(CC1C(=O)NCCN1CC1CCCCC1)NCc1ccc(F)cc1F (stereo not drawn),inactive: -5.61%,
S=c1nc(NCc2cccc(Cl)c2)c2ccccc2[nH]1,inactive: -16.3%,
O=C(O)CSc1ncnc2sc3c(c12)CCC3,,"inconclusive: 22.4 µM [inhibitor, single point]"
N#CC1=C(N)NC(SCC(=O)c2ccc(Br)cc2)=C(C#N)C12CCCCC2,,"inconclusive: 25.1 µM [inhibitor, single point]"
CCOC(=O)c1ccc(NC(=O)c2c(NCc3sccc3C)sc3c2CCC(C)C3)cc1 (stereo not drawn),,active: 14.1 µM
O=C1C[C@H](c2ccc(O)cc2)Oc2cc(O[C@@H]3O[C@H](CO)[C@@H](O)[C@H](O)[C@H]3O)cc(O[C@@H]3O[C@H](CO)[C@@H](O)[C@H](O)[C@H]3O)c21,inactive: 5.71%,
Cc1ccc(S(=O)(=O)NC(=O)Nc2cccc(S(=O)(=O)N(C)C)c2)cc1,inactive: -8.15%,
O=C(Nc1ccccc1)c1cnc(-c2ccccc2)nc1-c1ccccc1,,"inconclusive: 12.6 µM [inhibitor, partial curve, poor fit]"
CCn1c(=O)c(C(=O)Nc2ncccc2O)c(O)c2ccccc21,inactive: 4.21%,
O=C(N/N=C/c1ccc(OC(F)F)cc1)c1cccc(S(=O)(=O)N2CCOCC2)c1,,"inconclusive: 0.282 µM [inhibitor, full curve, poor fit]"
Cc1ccc(-n2ncc3c(Nc4ccc(Oc5ccccc5)cc4)ncnc32)c(C)c1,,"inconclusive: 14.1 µM [inhibitor, partial curve, poor fit]"
Cc1ccc(OCC(=O)Nc2nnc(S(=O)(=O)N3CCc4ccccc43)s2)cc1,,"inconclusive: 12.6 µM [inhibitor, partial curve]"
Oc1ccccc1-c1nc2cnccn2c1Nc1ccc2c(c1)OCCO2,,"inconclusive: 3.98 µM [inhibitor, full curve]"
Cc1[nH]c2ccccc2c1/C=C/c1nc2ccccc2c(=O)[nH]1,,"inconclusive: 20 µM [inhibitor, single point]"
COc1ccc(N2CCN(Cc3cc(OC)c(O)c([N+](=O)[O-])c3)CC2)cc1,,"inconclusive: 3.16 µM [inhibitor, partial curve, poor fit]"
COc1cc(NC(=S)NC(=O)c2ccc(F)cc2)ccc1NC(=O)c1ccco1,,"inconclusive: 0.112 µM [inhibitor, full curve, poor fit]"
O=C(c1cc(-c2ccccc2)nn1-c1ccccc1)N1CCN(S(=O)(=O)c2cccc(F)c2)CC1,,"inconclusive: 5.62 µM [inhibitor, single point]"
Nc1ccc(O)cc1,,active: 4.47 µM
CC(CN(C(N)=O)c1ccccc1O)C(=O)O (stereo not drawn),,"inconclusive: 1.12 µM [inhibitor, full curve]"
COc1ccc(N2CCC(CNS(=O)(=O)c3cccc(C(F)(F)F)c3)C2)cc1 (stereo not drawn),,"inconclusive: 22.4 µM [inhibitor, single point]"
Cc1onc(-c2c(F)cccc2Cl)c1-c1nnc(-c2ccc(C(F)(F)F)cc2)o1,,"inconclusive: 3.98 µM [inhibitor, partial curve, poor fit]"
